About 530 (0.13%) of roughly 410,000 compounds were called active. The inconclusive results got no clear call from the source; some entries with a clear call stand among them for comparison. Calls come from the whole dose curve; as a rule, active = well fitted inhibition curve with a large enough effect; inconclusive = small, poorly fitted or top-dose-only effect, or another doubt; inactive = no such curve, though single readings can be large or run the other way. Where the call is inconclusive, the potency comes from a doubtful curve fit.
test: qHTS of GLP-1 Receptor Inverse Agonists: Cytotox Screen; details: HEK293 cAMP-luciferase reporter cells, luminescence, 24 h; activity change, negative = inhibition: at 38.3 µM (top of the series) unless noted
Method in brief: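 Cells in DMEM/10% Nu serum/1% pen-strep, 1536-well format. Pre-incubated 12 h, dosed with 23 nL compound, incubated a further 24 h. Luciferase detection, 12 min at room temp, luminescence.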
% is set by controls: 0 for no effect and ±100 for the full control effect; potency is the fitted concentration of half-maximal effect.

Row | SMILES | Potency | activity change, negative = inhibition
1 | CC(C)n1c(C(=O)OCC(=O)NCc2ccc3c(c2)OCO3)cc2sccc21 | inconclusive: 31.6 µM [inhibitor, single point] | –
2 | C=CC[C@@H](Cc1ccc(F)cc1)C(=O)OC[C@@H]1CCCN1C(=O)[C@H](CC=C)CC(=O)NCCO | inconclusive: 2 µM [inhibitor, full curve, poor fit] | –
3 | O=C(NCc1ccccc1)Nc1cccn(Cc2ccccc2F)c1=O | – | inactive: -3.45%
4 | Cc1ccc(C(=O)c2oc3ccccc3c2NC(=O)C(C)Oc2ccccc2Cl)cc1 (configuration not stated) | – | inactive: -1.29%
5 | CN1/C(=C\C(=O)CN2C(=O)NC3(CCCCCC3)C2=O)C(C)(C)c2ccccc21 | inconclusive: 12.6 µM [inhibitor, single point] | –
6 | CC(/C=C1\SC(=S)N(NC(=O)c2ccc(C)cc2)C1=O)=C\c1ccccc1 | inconclusive: 28.2 µM [inhibitor, single point] | –
7 | COc1ccc(NC(=O)c2c(NCc3cccs3)sc3c2CCCCC3)c(OC)c1 | – | inactive: 0%
8 | Cc1cc(Br)ccc1NC(=O)CCNS(=O)(=O)c1cccc2nonc12 | – | inactive: -14.9%
9 | O=C(Cn1ncc2c3ccccc3n(Cc3ccccc3)c2c1=O)NCCCN1CCCC1 | inconclusive: 28.2 µM [inhibitor, single point] | –
10 | COc1ccc(Cn2c(=O)cc(N)n(-c3ccccc3C)c2=O)cc1 | inconclusive: 14.1 µM [inhibitor, single point] | –
11 | Cc1[nH]n(-c2ccccc2)c(=O)c1/C=N/NC(=O)c1ccccc1F | inconclusive: 5.62 µM [inhibitor, full curve, poor fit] | –
12 | CC(=O)Nc1cccc(C(=O)/C=C/c2cccs2)c1 | – | inactive: -38.6%
13 | C/C(=N\NC(=O)Cc1ccccc1)c1cccs1 | inconclusive: 1.78 µM [inhibitor, partial curve, poor fit] | –
14 | CCc1cccc2c(C(=O)CN3C(=O)NC(C)(c4cccc5ccccc45)C3=O)c[nH]c12 (configuration not stated) | inconclusive: 28.2 µM [inhibitor, single point] | –
15 | O=C(CN(c1ccc2c(c1)OCCO2)S(=O)(=O)c1ccccc1)N1CCN(Cc2ccccc2)CC1 | – | inactive: -4.61%
16 | CC(C)Oc1ccc(CNC(=O)c2cccc(NC(=O)c3nsc4ccccc34)c2)cc1 | – | inactive: -4.18%
17 | Cc1cc(C)c(C)c(S(=O)(=O)N2CCN(C(=O)c3cc(=O)[nH]c4ccccc34)CC2)c1C | inconclusive: 11.2 µM [inhibitor, single point] | –
18 | COc1ccc(Nc2c3c(nc4ccc(NC(=O)c5cc(Cl)ccc5OC)cc24)CCCC3)cc1OC | inconclusive: 3.16 µM [inhibitor, full curve, poor fit] | –
19 | Cc1ccc(Nc2nc(N/N=C\c3ccc4c(c3)OCO4)nc(N3CCOCC3)n2)cc1 | inconclusive: 12.6 µM [inhibitor, partial curve, poor fit] | –
20 | Oc1ccc(Cl)cc1CNCc1ccc(F)c(F)c1 | inconclusive: 10 µM [inhibitor, partial curve, poor fit] | –
21 | Cc1ccc(CNC(=O)c2c[nH]n3c(=O)c(Cc4ccc(F)cc4Cl)c(C)nc23)cc1 | inconclusive: 15.8 µM [inhibitor, single point] | –
22 | C[C@H](CO)N1C[C@H](C)[C@@H](CN(C)Cc2ccc(Cl)c(Cl)c2)Oc2c(NC(=O)Cc3ccccc3)cccc2C1=O | inconclusive: 28.2 µM [inhibitor, partial curve, poor fit] | –
23 | CN1CCN(C(c2cccs2)c2nnnn2Cc2ccc(F)cc2)CC1 (configuration not stated) | – | inactive: -2.35%

Row | SMILES | Potency | activity change, negative = inhibition
24 | CCN1CCN(c2cc(C)c3cc(NC(=S)N(CC)CC)ccc3n2)CC1 | inconclusive: 28.2 µM [inhibitor, single point] | –
25 | O=C(NC(=S)N1CCN(C2CCCCC2)CC1)c1ccccc1 | inconclusive: 11.2 µM [inhibitor, single point] | –
26 | Cc1cc(NC(=O)C2CCCN(S(=O)(=O)c3cn(C)cn3)C2)ccc1Br (configuration not stated) | – | inactive: -0.0831%
27 | CCCCN1C(=O)NC(NC(=O)C2CC2)(C(F)(F)F)C1=O (configuration not stated) | inconclusive: 0.447 µM [inhibitor, full curve, poor fit] | –
28 | O=C(NCCc1ccc(Cl)cc1)c1ccc(CSCc2ccc(Cl)cc2)o1 | – | inactive: -3.5%
29 | CCc1cccc2c(C(=O)CN3C(=O)NC4(CCc5ccccc54)C3=O)c[nH]c12 (configuration not stated) | inconclusive: 17.8 µM [inhibitor, single point] | –
30 | Clc1ccccc1-c1nnc(SCc2nc(-c3ccccc3)no2)n1-c1ccccc1 | – | inactive: -7.36%
31 | Cn1ncc(Oc2ccc([N+](=O)[O-])cc2)c(Cl)c1=O | inconclusive: 11.2 µM [inhibitor, single point] | –
32 | CN(C)C(=S)Nc1nc2ccccc2s1 | inconclusive: 0.501 µM [inhibitor, full curve] | –
33 | CCC(C)(C)NC(=O)C(c1ccc(C)o1)N(Cc1cccs1)C(=O)Cn1nnc2ccccc21 (configuration not stated) | – | inactive: -17.5%
34 | CC(C)(C)C1C/C(=C/c2ccco2)C(=O)/C(=C/c2ccco2)C1 (configuration not stated) | inconclusive: 14.1 µM [inhibitor, single point] | –
35 | C=CCNc1nc2c(c(=O)n(C)c(=O)n2C)n1CCCCCC | – | inactive: 4.88%
36 | Cc1cc(C)c2sc(N(CCCN(C)C)C(=O)c3ccc(S(=O)(=O)N4CCCc5ccccc54)cc3)nc2c1 | inconclusive: 25.1 µM [inhibitor, single point] | –
37 | CC(C)Cn1c(C(C)C)nc([N+](=O)[O-])c1S(=O)(=O)c1ccc(F)cc1 | inconclusive: 10 µM [inhibitor, partial curve, poor fit] | –
38 | COc1ccc(C2=NN(C(=O)COC(=O)c3ccc(S(C)(=O)=O)c([N+](=O)[O-])c3)C(c3ccco3)C2)cc1 (configuration not stated) | inconclusive: 10 µM [inhibitor, partial curve, poor fit] | –
39 | CC(=O)c1ccc(S(=O)(=O)Nc2ccc(-n3cnnn3)cc2)cc1 | – | inactive: -25.1%
40 | Cc1cccc(N(CC(=O)N(C)Cc2ccccc2)S(=O)(=O)c2ccccc2)c1C | – | inactive: -4.33%
41 | COC(=O)[C@@]12CCCCN1[C@H](c1ccc(-c3ccc(F)cc3)c(OC)c1)[C@H]1C(=O)N(C)C(=O)[C@H]12 | inconclusive: 28.2 µM [inhibitor, single point] | –
42 | CN1CCN(C(=O)/C(=C/c2cn(C)c3ccccc23)NC(=O)c2ccccc2)CC1 | inconclusive: 28.2 µM [inhibitor, single point] | –
43 | COC(=O)c1cc(NC(=O)Cn2ncc3c([nH]c4ccccc43)c2=O)cc(C(=O)OC)c1 | – | inactive: -17%
44 | CN(C)c1ccc(-c2ccnc3c2CC(C)(C(=O)NCc2cccs2)O3)cc1 (configuration not stated) | inconclusive: 5.62 µM [inhibitor, partial curve, poor fit] | –
45 | CCCc1nn2c(=O)cc(COC(=O)c3ccccc3NC(=O)c3ccc(OCC)cc3)nc2s1 | – | inactive: 1.01%
46 | Cc1ccccc1NC(=S)NC(=O)CCc1ccccc1 | inconclusive: 28.2 µM [inhibitor, single point] | –

Row | SMILES | Potency | activity change, negative = inhibition
47 | Cc1cccc(-c2nc3cc(NC(=O)COc4ccccc4F)ccc3o2)c1 | – | inactive: -7.64%
48 | O=C1NC[C@H](CCCCN2C[C@H](Cc3ccc(O)cc3)N(Cc3ccccc3)C(=O)C2=O)N(CCc2ccc(O)cc2)C1=O | – | inactive: 4.23%
49 | COCCNC(=O)C1CCCN(C(=O)c2ccnc(Cl)c2)CC1 (configuration not stated) | – | inactive: 5.34%
50 | CCOc1ccc2oc(-c3ccccc3)c(C(=O)N3CCN(C)CC3)c2c1 | inconclusive: 12.6 µM [inhibitor, single point] | –
51 | CCOc1ccc(NC(=O)Cn2nc(CC)n3c(cc4sccc43)c2=O)cc1 | – | inactive: 1.81%
52 | CN1CCC(NCCC(c2ccc(F)cc2)c2ccc(Cl)cc2)CC1 (configuration not stated) | inconclusive: 3.55 µM [inhibitor, full curve] | –
53 | CCCC1CC(=O)NC1(C(=O)OCC)C(=O)OCC (configuration not stated) | – | inactive: 3.05%
54 | COc1cc(NC(=S)NC(=O)c2cc(C)cc(C)c2)ccc1NC(=O)c1cccs1 | – | inactive: 5.33%
55 | O=C(CC(O)(C(F)(F)F)C(F)(F)F)Nc1ccc(Cl)c(Cl)c1 | inconclusive: 5.01 µM [inhibitor, partial curve, poor fit] | –
56 | COc1ccc2nc(C)cc(N/N=C/c3ccc(F)cc3)c2c1 | inconclusive: 4.47 µM [inhibitor, full curve, poor fit] | –
57 | CCOC(=O)/C(=N\Nc1ccccc1)c1csc(Nc2ccc(C)cc2)n1 | inconclusive: 7.94 µM [inhibitor, partial curve, poor fit] | –
58 | O=C(NCC(=O)N(c1ccccc1F)C(C(=O)NC1CCCC1)c1ccncc1)c1ccco1 (configuration not stated) | – | inactive: -7.36%
59 | C/C(=N/NC(=O)c1ccc(C(C)(C)C)cc1)c1ccccn1 | inconclusive: 2.51 µM [inhibitor, full curve, poor fit] | –
60 | COc1ccc(-c2cc(C(=O)Oc3ccc(C#N)cc3)no2)cc1 | – | inactive: 7.97%
61 | O=C(NC(=S)N1CCN(C/C=C/c2ccccc2)CC1)c1c(F)cccc1F | inconclusive: 22.4 µM [inhibitor, single point] | –
62 | COc1cccc(CNCc2ccc(SC)cc2)c1OC | inconclusive: 10 µM [inhibitor, single point] | –
63 | O=C(Nc1nccs1)c1ccc(Cl)s1 | inconclusive: 22.4 µM [inhibitor, single point] | –
64 | CC/C(=N/NC(=O)c1ccccc1)c1ccc(OCCN2CCOCC2)cc1 | inconclusive: 28.2 µM [inhibitor, single point] | –
65 | CCCCCCNC(=O)CC(c1ccccc1)c1cc(Br)ccc1O (configuration not stated) | inconclusive: 28.2 µM [inhibitor, single point] | –
66 | Cc1cc(C)cc(NC(=S)N(CCN2CCCCC2)Cc2ccco2)c1 | inconclusive: 20 µM [inhibitor, single point] | –
67 | CC(NC(=S)Nc1ccccc1Cl)C(c1ccccc1)N1CCOCC1 (configuration not stated) | active: 10 µM | –

Source: PubChem BioAssay AID624418 (National Center for Advancing Translational Sciences (NCATS), 2012)
